The values below come from US20020193351A1, “Fungicidal and bactericidal compositions for plants containing phosphonate and phosphate salts, metal chelates, and derivatives thereof” (priority 1996, published 2002).

Read-outs that look alike come from different tables or passages of the source.

The subject of test [1] is Melanose (Diaporthe citri). The conditions noted are these: fruit sampled in July.
Test [2] deals with Citrus Greasy Spot (Mycosphaerella citri). The conditions noted are these: for Citrus Greasy Spot repression, verdict: Example 1, comment on the table; for AVE % INFECTION 2/10/88: mid-summer, Valencia orange, rated seven months later.
For test [3], the system named is greasy spot, Mycosphaerella citri. The conditions noted are these: for % REMAINING LEAVES WITH GREASY SPOT / DEFOLIATION: dilute spray in July at 700 gpa; for % REMAINING LEAVES WITH GREASY SPOT: examined in February; for DEFOLIATION: leaves counted in February; for Effectiveness against greasy spot: Example 4, comparison of treatments at the rates of the table. On the procedure:
In the present example, […] plants (Citrus paradisi ‘Marsh’) were tested with various fungicides to determine the effectiveness in eliminating greasy spot, Mycosphaerella citri.
Spray treatments were applied dilute (applied to point of run off) by handgun in July to 10-foot high trees at a rate equivalent to 700 gpa. Treatments were replicated on 8 single tree plots in a RCB design. Groups of 15 shoots on each of the east/west and east side of each tree were tagged and the initial number of leaves was recorded. In February, remaining leaves were counted and examined for greasy spot.

With `CC1COC(Cn2cncn2)(c2ccc(Oc3ccc(Cl)cc3)cc2Cl)O1` (stereo not shown) [Difenconazole, 1-2[2-[4-(4-chlorophenoxy)-2-chlorophenyl-(4-methyl-1,3-dioxolan-2-l)-methyl]]-1H-1 ,2,4-triazole, reference compound], the “% INFECTION (FRUIT)” value in test [1] (0.5 LB AI/100 gallons, timing June) was determined as 4%. The “Citrus Greasy Spot repression, verdict” value in test [2] is recorded as “desirable fungus repression”. Moreover, the entries for the “AVE % INFECTION 2/10/88” value in test [2] (rate 50 gram (gm) AI/100 gallons per acre) and in test [2] (rate 100 gm AI/100 gallons per acre) were 1.56% and 1.0%, respectively.

Take “Sodium cupric ethylenediamine-di-o-hydroxyphenylacetic acid [Cu-EDDHA]”: the “% INFECTION (FRUIT)” value came out at 14% in test [1] (0.2 LB AI/100 gallons, timing June); 11% in test [1] (0.2 LB AI/100 gallons, timing May-June); 9% in test [1] (0.2 LB AI/100 gallons, timing May); 15% in test [1] (0.4 LB AI/100 gallons, timing May-June); 13% in test [1] (0.4 LB AI/100 gallons, timing May); 29% in test [1] (0.8 LB AI/100 gallons, timing May-June). Further, in test [1] (0.8 LB AI/100 gallons, timing May), the “% INFECTION (FRUIT)” value was 21%. Moreover, the “Citrus Greasy Spot repression, verdict” value in test [2] is “excellent results”. Moreover, in test [2] (rate 0.2 lbs. AI/100 gallons per acre), the “AVE % INFECTION 2/10/88” value is on record as 2.5%. Further, in test [3] (1.5 gal./100 gallons), the “% REMAINING LEAVES WITH GREASY SPOT” value amounted to 12.0 a %. This compound also registered a DEFOLIATION in test [3] (1.5 gal./100 gallons) of 0.8 a. In addition, the “Effectiveness against greasy spot” value in test [3] was “no significant differences in effectiveness”.

Regarding `O=S(=O)([O-])[O-].[Cu+2].[Cu+2].[Cu+2].[Cu+2].[OH-].[OH-].[OH-].[OH-].[OH-].[OH-]` [Tribasic copper sulfate, reference compound], in test [3] (0.75 lb./100 gallons), the “% REMAINING LEAVES WITH GREASY SPOT” value was 20.1 a % and the DEFOLIATION is listed as 1.9 a. Also, the “Effectiveness against greasy spot” value in test [3] is “no significant differences in effectiveness”.
